# Measurements reported in PubChem BioAssay AID1347073 (National Center for Advancing Translational Sciences (NCATS), 2019).
# About 200 (0.44%) of roughly 45,000 compounds were called active. About 7% were inconclusive and are not listed. Calls follow the shape of the dose curve; as a rule, active = well fitted activation curve with a large enough effect; inconclusive = small, poorly fitted or top-dose-only effect; inactive = no such curve, though single readings can be large or run the other way. Some of the results follow.
# Assay: qHTS of TDP-43 Inhibitors: NCGC Sytravon Library Screen; also: 0% is about no effect; nearly all actives have a fitted effect of over 55% in size
# Details: yeast TDP-43 toxicity rescue, BacTiter-Glo growth, 24 h; series mostly up to 46.1 µM; growth rescue (activation): at the top concentration
# Outline: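 TDP-43-expressing yeast, pregrown in raffinose, seeded at OD600 0.02 in galactose medium with compound for 24 hr at 30 deg C. Growth read by BacTiter-Glo luminescence, so rescue of toxicity appears as activation.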
Structure (SMILES),growth rescue (activation),Potency
Cc1ccc2c(c1)N(CCC(=O)NC1CCCCC1C)C(=O)CO2 (stereo not given),inactive: 5.5%,
CCOc1cnc(-c2c(-c3c(F)cccc3Cl)noc2C)o1,inactive: -23.4%,
COc1ccccc1-c1csc(C(NC(C)=O)c2ccccc2)n1 (stereo not given),inactive: 0.133%,
O=C(CSc1n[nH]c(-c2ccccc2)n1)Nc1ccccc1O,inactive: 15.3%,
NC(=O)c1cc(-c2csc(NCCc3ccccc3)n2)ccc1O,inactive: -49.9%,
O=C(NC(c1ccc(-c2ccccc2)cc1)c1cnccn1)C1CCN(Cc2ccc(Oc3ccccc3)cc2)CC1 (stereo not given),inactive: -39.1%,
O=C(O)c1ccc(NS(=O)(=O)c2ccc3c(c2)C(=O)c2cc(S(=O)(=O)Nc4ccc(C(=O)O)cc4)ccc2-3)cc1,inactive: -1.63%,
CCC1Oc2ccc(C)cc2N(CC(=O)N2CCOCC2)C1=O (stereo not given),inactive: 18.1%,
Cc1ccc(NC(=O)c2ccc([N+](=O)[O-])o2)cc1S(=O)(=O)N1CCOCC1,inactive: 17.5%,
CN(Cc1ccon1)C(=O)C1CCN(C2CCN(CCCc3ccccc3)CC2)CC1,inactive: 13.7%,
CCOc1ccc(NC(=S)N2CCC(NC(=O)c3ccccc3)CC2)cc1,inactive: 0.955%,
CCOC(=O)c1c(-c2ccccc2)oc2ccc(OCC)cc12,inactive: 25.3%,
Cc1ccc(NC(=O)CCNS(=O)(=O)c2cccc3nsnc23)cc1F,inactive: 7.3%,
CN1CCC/C1=C1/C(=O)N(c2ccccc2)N=C1NC(=O)Nc1cccc(Cl)c1,inactive: 6.48%,
COc1ccc(NC2=C(C(C)=O)C(c3ccccc3)C(C(C)=O)C(C)(O)C2)cc1 (stereo not given),inactive: 10.8%,
Cc1cccc(C)c1NC(=O)Nc1ccccc1-n1ccnc1,inactive: 9.31%,
O=C(c1cnn(C(=O)c2ccccc2)c1)c1ccccc1O,inactive: 28.9%,
Cc1c(CN2CCC(CO)(CC3CCCCO3)CC2)cnn1C (stereo not given),inactive: 2.28%,
COc1ccc(C(=O)Nc2nc3c(s2)Cc2cc(OC)ccc2-3)cc1,,inactive
COc1c(Cl)ccc(Cl)c1C(=O)NC(=S)N1CCOCC1,inactive: 11.5%,
COc1ccc(CNC(=O)CN(Cc2ccc(OC)cc2)C(=O)CCC(=O)Nc2nccs2)cc1,inactive: 0.639%,
CN1COc2ccc3ccccc3c2C1,inactive: 5.38%,
O=C(Nc1ccc(N2CCOCC2)cc1)c1cccc2c(-c3ccc(F)c(F)c3)coc12,inactive: -2.56%,
O=C(COc1ccccc1Cl)Nc1ccc2c(c1)OCO2,inactive: 13%,
Cc1ccc(NC(=O)c2c(Cl)nc3ccccn23)cc1,inactive: 24.1%,
CCNC(=O)C1(C)CCCN(CC(=O)c2ccccc2OC)C1 (stereo not given),inactive: -18.5%,
CC(C)N(Cc1ccccc1)C(=O)COC(=O)c1c(F)cccc1F,inactive: 9.75%,
CN(C)S(=O)(=O)c1ccc(C(=O)NCc2ccccn2)cc1,inactive: 13.5%,
CCOc1cc(S(=O)(=O)NCc2ccncc2)c(C)cc1C,inactive: -8.7%,
COc1ccccc1CNC(=O)CN1C(=O)NC(Cc2ccccc2)(c2ccccc2)C1=O (stereo not given),inactive: -9.37%,
